{"source": "PubChem BioAssay AID1745845", "about": "(National Center for Advancing Translational Sciences (NCATS), 2022)", "note": "The campaign covered roughly 360,000 compounds. About 2,600 (0.72%) were called active. This list was built around the results that the source calls inconclusive (neither active nor inactive); the mix of calls is not that of the screen. Calls follow the shape of the dose curve; as a rule, active = well fitted inhibition curve with a large enough effect; inconclusive = small, poorly fitted or top-dose-only effect; inactive = no such curve, though single readings can be large or run the other way. Where the call is inconclusive, the potency comes from a doubtful curve fit. Potency is read from the fitted curve at half-maximal effect; tags tell the direction and shape of the fitted curve.", "data": [{"experiment": "Primary qHTS for Inhibitors of ATXN expression; also: nearly all actives have a fitted effect of over 55% in size", "settings": "HEK-293 ATXN2-luciferase reporter, luminescence, 24 h; series mostly up to 57 µM", "summary_of_the_method": "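ATXN2-luciferase reporter cells (luciferase flanked by upstream and downstream ATXN2 gene portions) were treated 24 h at 37 °C with compounds at up to 57 uM. SteadyGlo luminescence gave expression; GF-AFC fluorescence gave viability.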", "values": [{"smiles": "COc1cc(Cl)c(NS(=O)(=O)c2ccc(-c3cnc(C4CC4)o3)cc2)c(OC)c1", "Potency": "inconclusive: 6.31 µM [inhibitor, partial curve, poor fit]"}, {"smiles": "Cc1ccc(S(=O)(=O)N2CCCCC2)cc1NC(=O)c1cccs1", "Potency": "inactive"}, {"smiles": "Cc1ccc2nc(CSc3nc(C)ccc3C#N)[nH]c2c1", "Potency": "active: 2.24 µM"}, {"smiles": "CC(O)CN1C(=O)C(CC(=O)Nc2ccc(Cl)cc2)SC1=Nc1ccccc1", "note": "(configuration not stated)", "Potency": "inconclusive: 12.6 µM [inhibitor, single point]"}, {"smiles": "CCCCCCCCNC(=O)c1cccnc1SCC(=O)Nc1ccc(OC)cc1OC", "Potency": "inconclusive: 37.7 µM [inhibitor, single point]"}, {"smiles": "Oc1cccc2cc(Nc3ccccc3)cnc12", "Potency": "active: 7.08 µM"}, {"smiles": "Cc1ccc(C)c(OCC(O)CN2CCc3ccccc3C2)c1C", "note": "(configuration not stated)", "Potency": "inconclusive: 10 µM [inhibitor, partial curve, poor fit]"}, {"smiles": "COc1ccccc1N1CCN(c2ccc(-c3ccccc3)nn2)CC1", "Potency": "inconclusive: 17.8 µM [inhibitor, single point]"}, {"smiles": "CCCc1ncc(C(=O)O)s1", "Potency": "inactive"}, {"smiles": "CN(C)CCN1C(=O)c2cccc3cc([N+](=O)[O-])cc(c23)C1=O", "Potency": "inconclusive: 1.5 µM [inhibitor, full curve]"}, {"smiles": "C/C(=N\\NC(=O)c1cc2ccccc2cc1O)c1ccc2c(c1)OCO2", "Potency": "inactive"}, {"smiles": "FC(F)(F)c1cc(-c2ccccc2)nc(NC2CCCC2)n1", "Potency": "inactive"}, {"smiles": "CCN(Cc1ccccc1)S(=O)(=O)c1ccc(C(=O)N(CCCN(C)C)c2nc3cc(C)cc(C)c3s2)cc1", "Potency": "inconclusive: 22.4 µM [inhibitor, single point]"}, {"smiles": "Oc1c(CNc2ccccc2)cc(COCc2ccccc2)c2cccnc12", "Potency": "inconclusive: 4.47 µM [inhibitor, single point]"}, {"smiles": "Cc1ccccc1OCCNC(=S)Nc1ccccc1", "Potency": "inactive"}, {"smiles": "COc1cccc(CNc2nc(NCC3CC3)nc3ccsc23)c1", "Potency": "inconclusive: 15.8 µM [inhibitor, partial curve]"}, {"smiles": "O=C1C(Cl)=C(Oc2ccccc2)C(=O)c2ccccc21", "Potency": "inconclusive: 11.2 µM [inhibitor, partial curve, poor fit]"}, {"smiles": "CCN(CC)C(=O)c1csc(Nc2ccc(C)cc2)n1", "Potency": "inactive"}, {"smiles": "COC(=O)[C@]12CCCCC=C1N(Cc1ccco1)C(=O)[C@H](CC(=O)NCCCCc1ccccc1)C2", "Potency": "inconclusive: 20 µM [inhibitor, partial curve, poor fit]"}, {"smiles": "COc1ccccc1N1C(=O)N(C(C)=O)C2C1Nc1ccccc1N2C", "note": "(configuration not stated)", "Potency": "active: 25.1 µM"}, {"smiles": "COc1ccc(C(=O)c2ccc(Br)cc2)c(OC)c1OC", "Potency": "inactive"}, {"smiles": "Oc1ccc([C@@H]2Oc3ccc(O)cc3[C@@H]3CCC[C@@H]32)cc1", "Potency": "inconclusive: 24.3 µM [inhibitor, single point]"}, {"smiles": "CCN(CC)S(=O)(=O)c1cccc(C(=O)N[C@H](C(=O)Nc2nc3ccc(F)cc3s2)C(C)C)c1", "Potency": "inconclusive: 39.8 µM [inhibitor, single point]"}, {"smiles": "Cc1cc[n+](C(C)C(=O)c2ccc(-c3ccccc3)cc2)cc1", "note": "(configuration not stated)", "Potency": "inconclusive: 9.47 µM [inhibitor, partial curve, poor fit]"}, {"smiles": "NS(=O)(=O)c1ccc(NC(=S)N2CCC(Cc3ccccc3)CC2)cc1", "Potency": "inactive"}, {"smiles": "Cc1cc2c(SCC(=O)NC3CCCCC3)ncnc2s1", "Potency": "inactive"}, {"smiles": "CC(CCc1ccccc1)NC(=O)COC(=O)c1ccc(S(C)(=O)=O)c([N+](=O)[O-])c1", "note": "(configuration not stated)", "Potency": "inconclusive: 37.7 µM [inhibitor, single point]"}, {"smiles": "O=C(N/N=C/c1cc2c3c(c1O)CCCN3CCC2)c1ccccc1O", "Potency": "inconclusive: 1.89 µM [inhibitor, full curve, poor fit]"}, {"smiles": "CCCC(C)NC(=O)COc1ccc(Sc2ccc(OCC(=O)NC(C)CCC)cc2)cc1", "note": "(configuration not stated)", "Potency": "inactive"}, {"smiles": "C=CCOc1ccccc1CN1CCC(C(=O)Nc2cccc(-c3ccn[nH]3)c2)CC1", "Potency": "inconclusive: 2.51 µM [inhibitor, partial curve, poor fit]"}, {"smiles": "COc1cc(CNC(C)c2ccccc2)cc(Br)c1OCc1ccc(F)cc1", "note": "(configuration not stated)", "Potency": "inconclusive: 35.5 µM [inhibitor, single point]"}, {"smiles": "O=C(c1ccccc1)C(CN1CCCCC1)c1ccccc1", "note": "(configuration not stated)", "Potency": "active: 20 µM"}, {"smiles": "CCc1ccc(CN(C)CC(O)COc2cccc3ccccc23)cc1", "note": "(configuration not stated)", "Potency": "inconclusive: 39.8 µM [inhibitor, single point]"}, {"smiles": "O=C(O)c1cccc(NC(=O)c2ccccc2)c1", "Potency": "inactive"}, {"smiles": "CCCSC(=S)NC1CCS(=O)(=O)C1", "note": "(configuration not stated)", "Potency": "inconclusive: 39.8 µM [inhibitor, single point]"}, {"smiles": "O=C(c1cccc(-c2ccccc2)c1)N1CC[C@@H](N2CCC(O)CC2)[C@H](O)C1", "Potency": "inactive"}, {"smiles": "O=C(NCc1ccco1)C1CCN(S(=O)(=O)N2CCC3(CC2)OCCO3)CC1", "Potency": "inactive"}, {"smiles": "COc1cccc(O)c1CN1CCC(C(=O)Nc2ccc(-c3cccc(C)c3)cc2)CC1", "Potency": "inconclusive: 17.8 µM [inhibitor, partial curve, poor fit]"}, {"smiles": "CCOc1ccccc1NC(=O)C(OC(=O)c1ccc(O)cc1)c1ccccc1", "note": "(configuration not stated)", "Potency": "inactive"}, {"smiles": "O=S1(=O)N[C@H](Cc2ccccc2)COc2cccc(N3CCN(Cc4ccccc4F)CC3)c21", "Potency": "inconclusive: 17.8 µM [inhibitor, partial curve, poor fit]"}, {"smiles": "CCOc1ccc(-c2nn(CC(=O)NC3CCCC3)c3c2cnc2ccc(C)cc23)cc1", "Potency": "inactive"}, {"smiles": "COc1ccc(C(=O)N2CCN(c3ccc(C)cc3C)CC2)cc1OC", "Potency": "inactive"}, {"smiles": "COc1cccc(CC2(CO)CCN(CC3=CC[C@H]4C[C@@H]3C4(C)C)CC2)c1", "Potency": "inactive"}, {"smiles": "Cn1nnnc1Sc1ncnc2scc(-c3ccc(Cl)cc3)c12", "Potency": "active: 14.1 µM"}, {"smiles": "CCc1cccc(NC(=O)CSc2nc3ccsc3c(=O)n2CC)c1", "Potency": "inconclusive: 39.8 µM [inhibitor, single point]"}, {"smiles": "COC(=O)c1cc(=O)n(Cc2ccco2)c(=Nc2ccc(F)c(Cl)c2)s1", "Potency": "active: 28.2 µM"}, {"smiles": "CC(C)NC(=O)/C(C#N)=C/c1cccc(NC(=O)c2ccccc2Cl)c1", "Potency": "inconclusive: 39.8 µM [inhibitor, single point]"}]}]}
